Assay results reported in PubChem BioAssay AID1745853 (National Center for Advancing Translational Sciences (NCATS), 2022).
The other results are listed elsewhere or left out. Further columns of the screen follow, without active or inactive calls.

Tests used:
Assay in all cases: Primary Screen for Target Class Profiling of Small Molecule Inhibitors of Methyltransferases
[1] = target: Glycine N-methyltransferase (Homo sapiens) (UniProt Q14749); conditions: purified enzyme, MTase-Glo SAH luminescence; measured here: GNMT inhibition; at 40 µM; stronger effect = lower value
Outline: (§1)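 Each enzyme was reacted with SAM and its substrate, with compounds tested once at 40 uM; SAH formed was read by MTase-Glo luminescence.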

[2] = target: Guanidinoacetate N-methyltransferase (Homo sapiens) (UniProt Q14353); conditions: purified enzyme, MTase-Glo SAH luminescence; measured here: GAMT inhibition; at 40 µM; stronger effect = lower value
Outline: as §1

[3] = target: Histamine N-methyltransferase (Homo sapiens) (UniProt P50135); conditions: purified enzyme, MTase-Glo SAH luminescence; measured here: HNMT inhibition; at 40 µM; stronger effect = lower value
Outline: as §1

[4] = target: Nicotinamide N-methyltransferase (Homo sapiens) (UniProt P40261); conditions: purified enzyme, MTase-Glo SAH luminescence; measured here: NNMT inhibition; at 40 µM; stronger effect = lower value
Outline: as §1

[5] = target: Phenylethanolamine N-methyltransferase (Homo sapiens) (UniProt P11086); conditions: purified enzyme, MTase-Glo SAH luminescence; measured here: PNMT inhibition; at 40 µM; stronger effect = lower value
Outline: as §1
% is set by controls: 0 for no effect and ±100 for the full control effect.

Row | Compound | activity change, negative = inhibition [1] [%] | activity change, negative = inhibition [2] [%] | activity change, negative = inhibition [3] [%] | activity change, negative = inhibition [4] [%] | activity change, negative = inhibition [5] [%]
1 | Cc1ccc(Cn2c(=O)c3ccccc3n3c(=O)n(CC(=O)Nc4cc(C)cc(C)c4)nc23)cc1 | 2.51 | 2.22 | 5.19 | -0.456 | -0.393
2 | Cc1oncc1C(=O)Nc1ccc(C(F)(F)F)cc1 | 6.07 | 9.03 | 9.3 | -8.27 | 0.689
3 | Nc1ccn(C2CO[C@H](CO)O2)c(=O)n1 (stereo not given in full) | -4.88 | -1.18 | 0.663 | -13.4 | 1.26
4 | CC(C)(O)C#Cc1ccc(C(=O)N2CCOCC2CC(=O)O)o1 (stereo not given) | -2.98 | -9.7 | -2.23 | -5.88 | -6.1
5 | c1ccc(C(OC2CCN(CCCc3nn[nH]n3)CC2)c2ccccc2)cc1 | 4.93 | -2.91 | 5.34 | -16.4 | -1.51
6 | CCc1cc2c(cc3n2CC(C)(C(=O)NC2CCCCCC2)N(c2cccc(F)c2)C3=O)s1 (stereo not given) | 0.604 | 2.8 | 3.75 | 4.72 | -0.809
7 | CC(C)CCNC(=O)C1(C)Cn2nc(C(=O)NCCCN3CCCC3)cc2C(=O)N1C (stereo not given) | 5.53 | 0 | 2.56 | 10.1 | 4.38
8 | c1ccc2c(c1)OCC(CCn1ccnc1-c1cc3n(n1)CCNC3)O2 (stereo not given) | -2.78 | -2.04 | -2.44 | -5.03 | -10.7
9 | COC(=O)NC(C)C(=O)N1Cc2cnc(Cc3ccc(OC)cc3)nc2C1 (stereo not given) | -1.93 | -0.704 | -1.03 | -0.591 | 1.94
10 | COc1ccccc1NC(=O)CSc1nnc2n(CCc3ccccc3)c(=O)c3ccccc3n12 | 1.65 | 0.578 | 8.41 | 0.002 | 1.85
11 | O=C(Nc1cccc(C(F)(F)F)c1)N[C@H]1CO[C@H]2[C@@H]1OC[C@@H]2n1cc(-c2ccccc2)nn1 | -5.08 | 6.57 | -0.199 | -1.36 | -6.34
12 | O=C1CC(Cc2ccccc2)CN1CC(=O)N1CCOC2(CCCC2)C1 (stereo not given) | -4.5 | -2.73 | -3.36 | -6.65 | -5.37
13 | COc1ccc(NC(=O)N[C@H]2[C@H](O)[C@@H](N(C)CCc3ccccn3)[C@@H]3OC[C@H]2O3)cc1 | -8.87 | -7.45 | -4.81 | -14.8 | -6.77
14 | COc1ccc(CNC(=O)c2cc3n(n2)CC(C)(C(=O)NCc2ccccc2)N(C)C3=O)c(OC)c1 (stereo not given) | 8.41 | 0.224 | 10.7 | 8.79 | 6.26
15 | CNC(=O)N1CCC(C2CCN(C(=O)c3ccc4ccccc4n3)C2)CC1 (stereo not given) | -5.11 | -4.53 | 0.171 | -11.8 | 5.11
16 | O=S(=O)(Nc1ccccc1Cl)c1ccc2[nH]c3c(c2c1)CCCC3 | -6.08 | 0.099 | -1.35 | -9.85 | -0.536
17 | CCn1c2ccccc2c2cc(Nc3ccnc(NCCCN4CCOCC4)n3)ccc21 | -7.4 | 9.9 | -83.5 | -71.2 | -23.2
18 | Cc1ccccc1NC(=O)Cn1c(=O)oc2cc(S(=O)(=O)N3CC(C)CC(C)C3)ccc21 (stereo not given) | 0.397 | 3.48 | 1.58 | 3.01 | -1.86
19 | CC1(C(=O)NC2CCCCCCC2)Cn2c(cc3occc32)C(=O)N1C1CCCCC1 (stereo not given) | 4.46 | 0 | 5.45 | -0.21 | 0.081
20 | CC(=O)NC(C)c1cnc(-c2cnc(Oc3ccc(OC(C)C)cc3)s2)s1 (stereo not given) | 0.479 | 8.67 | 6.03 | -12.3 | 2.1

Row | Compound | activity change, negative = inhibition [1] [%] | activity change, negative = inhibition [2] [%] | activity change, negative = inhibition [3] [%] | activity change, negative = inhibition [4] [%] | activity change, negative = inhibition [5] [%]
21 | CC1CCC(NC(=O)C2(C)Cn3c(ccc3-c3ccccc3)C(=O)N2Cc2cccc(F)c2)CC1 (stereo not given) | 4.66 | 0 | 1.69 | 2.67 | 0.062
22 | O=C(NCC1(N2CCN(c3ccccc3)CC2)CCOCC1)c1cccnc1Sc1ccccc1 | 5.42 | 2.29 | 8.95 | -15.4 | -0.074
23 | O=C(CCC1CCN(S(=O)(=O)c2ccccc2F)CC1)NCCCN1CCCC1=O | 15.8 | 1.19 | 12.8 | 5.59 | 9.44
24 | COC(=O)N1CCCCC1C(=O)N1CCC2(CC1)c1nc[nH]c1CCN2C (stereo not given) | -0.229 | 1.71 | 1.1 | 3.62 | 5.38
25 | CCNc1ncnc2sc3c(c12)CCN(C(=O)CCOC)C3 | -21.8 | -10.1 | -6.95 | -20.5 | -25.1
26 | O=C(c1ccc2c(=O)nc3c(-c4ccccc4F)n[nH]n3c2c1)N1CCN(c2ccc(F)cc2)CC1 | -14.1 | 3.49 | -0.576 | -4.14 | 0.667
27 | CCOc1ccc(CCNC(=O)CCc2nnc3n(Cc4ccc(C)cc4)c(=O)c4ccccc4n23)cc1 | -0.325 | 0 | -3 | -0.844 | -12.2
28 | O=C(/C=C/n1cnc(-c2cc(C(F)(F)F)cc(C(F)(F)F)c2)n1)NNc1cnccn1 | -0.102 | 6.59 | 11.2 | -6.11 | 5.72
29 | CCC1(C(=O)O)CCCN(Cc2ccccc2)C1 (stereo not given) | -0.596 | -0.899 | 0.554 | 2.92 | 3.97
30 | O=C1[C@H](O[C@@H]2O[C@H](CO)[C@@H](O)[C@H](O)[C@H]2O)Oc2ccccc2N1O | 3.09 | 3.26 | 7.25 | -6.84 | -2.9
31 | CN1C(=O)CN(Cc2ccccc2C#N)C(=O)c2ccccc21 | -0.33 | -1.89 | -1.09 | -3.87 | -2.52
32 | Cc1cc2nc3n(c(=O)c2n1CC(=O)NC1CCCCC1)CCCCC3 | -6.22 | -9.72 | -3.54 | -13.3 | 0.272
33 | CSc1ccc(CCN2C(=O)CSc3c(c4ccccc4n3C)C2C(=O)NCCC(C)C)cc1 (stereo not given) | 1.01 | 0.108 | -2.97 | -5.48 | -1.05
34 | O=C1CO[C@H]2CN(C3CCOCC3)C[C@H]2N1c1ccccc1 | -2.75 | -3.32 | -2.33 | -7.02 | -0.978
35 | CCCn1ncc(CN2CCCC23CCN(c2ncccn2)CC3)c1C | -7.94 | -5.67 | -6.35 | -11.3 | -18.5
36 | Cc1ccc(S(=O)(=O)NCc2ccc(C(=O)NCCN(Cc3ccccc3)C(C)C)cc2)cc1 | 6.21 | 11.7 | -7.38 | -13.7 | -3.37
37 | CCOC(=O)c1cc2n(n1)CC(C)(C(=O)NCc1ccc(C)cc1)N(Cc1ccccc1OC)C2=O (stereo not given) | 1.04 | 0.569 | 4.84 | -5.01 | 0.875
38 | NC(=O)c1cc[n+](CC2=C(C(=O)O)N3C(=O)[C@@H](NC(=O)[C@@H](c4ccccc4)S(=O)(=O)[O-])[C@H]3SC2)cc1 | -24.7 | 16.2 | 5.7 | -0.774 | 5.82
39 | C=C(CCO[C@@H]1O[C@H](CO)[C@@H](O)[C@H](O)[C@H]1O)C(=O)O | 42.4 | 75.8 | 25.9 | 57.6 | 31.5
40 | CC(C)c1ccc(CC(=O)N2CCC[C@@H](c3cccc(OC(C)(C)C(=O)O)c3)C2)cc1 | -4.57 | -5.45 | 13.1 | -18.8 | 0.83

Row | Compound | activity change, negative = inhibition [1] [%] | activity change, negative = inhibition [2] [%] | activity change, negative = inhibition [3] [%] | activity change, negative = inhibition [4] [%] | activity change, negative = inhibition [5] [%]
41 | Nc1nc2c(c(=O)[nH]1)C[C@@H](CCc1ccc(C(=O)N[C@@H](CCC(=O)O)C(=O)O)cc1)CN2 | -4.26 | -0.203 | 11.9 | -7.08 | 4.18
42 | COC(=O)C1=C(C)NC(=O)NC1c1ccc(Cl)cc1 (stereo not given) | -2.67 | -2.95 | -1.19 | -5.06 | -1.89
43 | CN1C[C@H](NCc2nccn2C)CCC[C@@H](C(=O)NC2CCOCC2)CC1=O | -6.16 | -4 | -2.67 | -6.93 | -7.22
44 | Cc1ccc(-c2cc3n(n2)CCCN(C(=O)CCN2C(=O)NC(C)(C)C2=O)C3)cc1C | -2.77 | 1.01 | -0.335 | -4.55 | 0.761
45 | Cc1ccc(NC(=O)Cn2nc3n(C)c(=O)c4ccc(C(=O)NC5CCCCC5)cc4n3c2=O)cc1 | 4.76 | 0 | 8.71 | 3.85 | 4.5
46 | CCCn1c(=O)c2ccc(C(=O)NCC(C)C)cc2n2c(=O)n(CC(=O)c3ccc(Cl)cc3)nc12 | 2.53 | 0 | 5.41 | 0.453 | 6.73
47 | CC1CCC(NC(=O)C2(C)Cn3c(ccc3-c3ccccc3)C(=O)N2Cc2ccccc2Cl)CC1 (stereo not given) | 3.35 | 0 | 2.53 | -0.668 | 0.366
48 | CC12CC34C=CC(=O)C(C)(CCC(=O)O)C3C(CC1C4)O2 (stereo not given) | 0 | 6.07 | 12.4 | -7.12 | 4.84
49 | CNC(=O)C1(N2CCC[C@H]2C(=O)N(C)CCN(C)C)CCC1 | -0.32 | 2.11 | 0.597 | -7.51 | 13
50 | Cc1cnc(Nc2cccc(CN3CCOCC3)c2)nc1Nc1cccc(S(=O)(=O)NC(C)(C)C)c1 | -6.43 | -10.5 | -13.4 | -21.7 | -16.6
51 | Cc1ccc(-c2nc3cnccn3c2NCCC(=O)O)cc1 | -7.46 | -5.5 | -4.02 | -10.2 | -9.92
52 | Cc1ccc(S(=O)(=O)c2nnn3c2nc(NC2CC2)c2cc(Cl)ccc23)cc1C | -8.95 | -1.41 | -4.29 | -8.22 | -11.5
53 | O=C(O)c1ccc(-c2nc3ccncc3[nH]2)cc1 | -28 | -28.6 | -23.6 | -36.2 | -36.5
54 | CC(C)CC(=O)OC[C@H]1O[C@@](COC(=O)CC(C)C)(O[C@H]2O[C@H](CO)[C@@H](O)[C@H](O)[C@H]2O)[C@@H](OC(=O)CC(C)C)[C@@H]1OC(=O)CC(C)C | 1.59 | 15.3 | 7.43 | -0.235 | 9.17
55 | COc1ccc(CNC(=O)C2(C)Cn3cnc(C(=O)Nc4cccc5c4CCCC5)c3C(=O)N2C2CC2)cc1 (stereo not given) | -0.432 | 4.62 | -1.22 | -5.74 | 0.025
56 | CCOC(=O)c1cc2n(n1)CC(C)(C(=O)NC1CCCCC1)N(c1ccc(F)cc1)C2=O (stereo not given) | -4.51 | 0.158 | -10.2 | -3.02 | -1.18
57 | Cc1noc(-c2ccn3c(CNC(=O)COc4ccccc4)nnc3c2)n1 | -4.12 | -1.54 | -1.6 | 0.793 | -1.55
58 | O=C(CN1CC2CC(C1)[C@H]1CCCC(=O)N1C2)N1CCCCC1 (stereo not given in full) | -5.28 | -5.97 | -4.5 | -6.82 | -12.3
59 | COc1ccc(NC(=O)CN(C)S(=O)(=O)c2ccc3[nH]c4c(c3c2)CCCC4)c(OC)c1 | -1.24 | 4.25 | -5.61 | -5.2 | -4.71
60 | COc1ccc(-c2nc3c(C)cccc3cc2CN2CC[C@@H](O)C2)cc1 | -13.9 | -5.79 | -16.5 | -7.79 | 4.55
